Literature values as cited in patent US20160263081A1, “ANTIPARASITIC AGENT” (NAI INC., priority 2013, published 2016).
Where two headings read alike, the source gives them in different places.

Columns and labels:
[1] = tested on: T. brucei rhodensiense bloodstream form; conditions: cited from earlier work
[2] = tested on: T. brucei gambiense bloodstream form; conditions: cited from earlier work
[3] = T. brucei rhodensiense bloodstream form
[4] = T. brucei gambiense bloodstream form

In the case of `Cc1ccc(C(=O)Nc2ccc(S(=O)(=O)O)c3cc(S(=O)(=O)O)cc(S(=O)(=O)O)c23)cc1NC(=O)c1cccc(NC(=O)Nc2cccc(C(=O)Nc3cc(C(=O)Nc4ccc(S(=O)(=O)O)c5cc(S(=O)(=O)O)cc(S(=O)(=O)O)c45)ccc3C)c2)c1` [Suramin], the IC50 [1] is given as 15 nM and the IC50 [2] is given as 349 nM.

In the case of `Nc1nc(N)nc(Nc2ccc([As]3SCC(CO)S3)cc2)n1` (stereo not drawn) [melarsoprol], the IC50 [1, 3] is given as 7 nM and the IC50 [2, 4] is given as 4 nM.

For `N=C(N)c1ccc(OCCCCCOc2ccc(C(=N)N)cc2)cc1` [pentamidine], the IC50 [1, 3] is listed as 0.6 nM and the IC50 [2, 4] is listed as 0.9 nM.
